# Reference: paper PMC4336329 (PLoS ONE, 2015)
# In all, about 310,000 compounds went through this assay and about 14,000 (4.5%) showed an effect of 50% or more. The effect is printed as a negative number. The list shows a part of the results.
# Target: human ether-à-go-go-related gene (hERG) potassium channel (human, UniProt Q12809)
# Assay: primary screen, population patch clamp on CHO cells stably expressing hERG
# 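Note: peak tail current of the secondary pulse compared with the same well before compound.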
# Chain of human ether-à-go-go-related gene (hERG) potassium channel (Q12809 whole entry, looked up): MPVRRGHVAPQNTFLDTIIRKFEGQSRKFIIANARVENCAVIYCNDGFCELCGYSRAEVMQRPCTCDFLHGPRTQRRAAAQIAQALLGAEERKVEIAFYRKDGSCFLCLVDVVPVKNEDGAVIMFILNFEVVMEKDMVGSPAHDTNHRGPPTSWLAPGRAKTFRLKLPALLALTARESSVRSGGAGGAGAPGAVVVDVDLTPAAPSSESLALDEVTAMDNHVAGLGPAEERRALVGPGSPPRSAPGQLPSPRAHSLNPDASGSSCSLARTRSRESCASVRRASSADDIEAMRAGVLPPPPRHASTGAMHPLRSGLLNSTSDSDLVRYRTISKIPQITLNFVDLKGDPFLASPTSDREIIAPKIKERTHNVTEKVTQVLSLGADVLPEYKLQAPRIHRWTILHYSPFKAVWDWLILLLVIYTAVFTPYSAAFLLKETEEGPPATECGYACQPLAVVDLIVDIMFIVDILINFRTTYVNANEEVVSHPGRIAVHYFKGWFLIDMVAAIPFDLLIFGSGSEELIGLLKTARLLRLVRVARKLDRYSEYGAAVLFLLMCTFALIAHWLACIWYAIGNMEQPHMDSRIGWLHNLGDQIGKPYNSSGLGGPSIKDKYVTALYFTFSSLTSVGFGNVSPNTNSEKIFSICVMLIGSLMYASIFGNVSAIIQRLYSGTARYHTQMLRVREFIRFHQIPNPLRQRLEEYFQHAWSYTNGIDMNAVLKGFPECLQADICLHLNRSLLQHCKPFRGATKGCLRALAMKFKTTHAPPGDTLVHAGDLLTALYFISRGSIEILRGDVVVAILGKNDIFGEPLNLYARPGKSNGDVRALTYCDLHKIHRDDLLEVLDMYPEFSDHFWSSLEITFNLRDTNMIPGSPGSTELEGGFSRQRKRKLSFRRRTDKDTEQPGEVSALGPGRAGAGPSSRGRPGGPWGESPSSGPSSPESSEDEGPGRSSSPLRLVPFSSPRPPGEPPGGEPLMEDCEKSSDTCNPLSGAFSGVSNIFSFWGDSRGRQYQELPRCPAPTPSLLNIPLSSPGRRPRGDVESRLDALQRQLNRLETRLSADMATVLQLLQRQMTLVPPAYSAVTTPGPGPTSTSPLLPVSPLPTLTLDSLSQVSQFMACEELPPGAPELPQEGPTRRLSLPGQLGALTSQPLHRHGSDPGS
row,Compound,"hERG current change (%, negative = inhibition) at 10uM"
1,COc1ccc(C2N(C(=O)C(F)(F)F)C(C)CN2S(=O)(=O)c2ccc(C)cc2)cc1 (stereo not shown),11.2%
2,CC(=O)Nc1nc(C)c(C(C)(C)C)s1,-4.84%
3,CCOc1ccccc1NC(=O)NNC(=O)COc1cccc(C)c1C,-4.61%
4,Cc1nnc2ccc(N3CCN(c4ccccn4)CC3)nn12,-57%
5,CCOc1ccc(CCNC(=O)c2ccc(CS(=O)Cc3ccc(Cl)cc3)o2)cc1 (stereo not shown),-14.1%
6,O=C(c1ccc2c(=O)n3c(nc2c1)CCCCC3)N1CCN(c2ccccc2)CC1,-17.2%
7,Cc1ccc(-c2nn(-c3ccccc3)cc2C(=O)NCCCN2CCOCC2)cc1,5.05%
8,CCC(C)[C@H](NC(=O)[C@@H]1Cc2ccccc2CN1)C(=O)NCc1ccc(OC)cc1 (stereo partly shown),-32.7%
9,C/C(=N\NC(=O)Cc1c(Cl)cccc1Cl)c1cccnc1,6.55%
10,Cc1cn(Cc2ccccc2Cn2cc(C)c(=O)[nH]c2=O)c(=O)[nH]c1=O,13.1%
11,COc1ccc2c(c1OC)C(=O)OC2Nc1nc(-c2ccc(-c3ccccc3)cc2)cs1 (stereo not shown),17%
12,CNS(=O)(=O)c1cccc(C(=O)NCC2(N3CCOCC3)CCCCC2)c1,9.92%
13,Cc1cc(NC(=O)CSc2cn(CCNC(=O)c3ccc(Cl)cc3)c3ccccc23)no1,-7.29%
14,CCN1CCN(CCCCOc2ccccc2F)CC1.O=C(O)C(=O)O,-9.65%
15,CCOP(=O)(O)c1ccccc1OCCCCCOc1ccccc1P(=O)(O)OCC,14.5%
16,CC1(c2nnc(-c3cccc(Cl)c3)o2)CC(c2ccc(Br)cc2)=NO1 (stereo not shown),14.8%
17,O=C(CSc1nc2ccccc2c(=O)n1-c1ccccc1)N/N=C/C=C/c1ccccc1[N+](=O)[O-],10.5%
18,COC(=O)c1ccc2c(=O)n(CC3CCCO3)c(=S)[nH]c2c1 (stereo not shown),11.1%
19,O=C(/C=C/c1ccc([N+](=O)[O-])o1)NNC(=O)c1ccc(F)cc1,2.67%
20,S=c1[nH]c(-c2ccccc2)cn1/N=C/c1ccc(Br)cc1,14.6%
21,CC(=O)N(c1ccccc1)C1SC(=O)N(c2ccccc2)C1=O (stereo not shown),13.9%
22,Cc1cc(C)c2cc(CN(CCO)Cc3nnnn3Cc3ccccc3)c(=O)[nH]c2c1,-7.71%

row,Compound,"hERG current change (%, negative = inhibition) at 10uM"
1,Cc1ccc2c(Cl)c(C(=O)N/N=C/c3cccn3C)sc2c1,6.91%
2,O=C(c1cccc(OC2CCN(C3CCCC3)CC2)c1)N1CCCCCCC1,-36%
3,O=C(O)CN(C1CCCCC1)S(=O)(=O)c1ccc(F)cc1,5.4%
4,CCOC(=O)C1CCN(c2c(NCc3ccc(C(=O)NC4CCCC4)cc3)c(=O)c2=O)CC1,-16.2%
5,CC1CCc2ccccc2N1C(N)=Nc1ccccc1.Cl (stereo not shown),5.35%
6,COC(=O)c1ccc(C)c(NC(=O)C2CC(=O)N(C3CCCC(C)C3C)C2)c1 (stereo not shown),-11.5%
7,C[C@]12CCC3C(CC[C@H]4CC(O)CC[C@]34C)C1CC/C2=N/NC(=O)c1ccncc1 (stereo partly shown),-10.8%
8,CN(C)c1ccc(C2CNC(c3ccc(Cl)c([N+](=O)[O-])c3)c3[nH]c4ccccc4c32)cc1.Cl (stereo not shown),-4.32%
9,Cc1c(C)n2c(SCC(=O)N3CCCC3)nnc2[nH]c1=O,3.87%
10,Cc1ccc(S(=O)(=O)N2CCN(C(=O)c3sccc3-c3ccccc3)CC2)cc1,-28.9%
11,CC(O)CC(C(=O)NNc1ccccc1)C(=O)NNc1ccccc1 (stereo not shown),21%
12,COc1cccc(NC(=O)COC(=O)c2cc(S(=O)(=O)N3CCOCC3)ccc2C)c1,-11.6%
13,O=c1ccc(-c2nc3ccccc3n2Cc2ccccc2Cl)c[nH]1,-11.9%
14,CCOc1ccc(NS(=O)(=O)c2ccc3c(c2)n(C)c(=O)n3C)cc1,15.2%
15,CCc1ccc(C2=NN(CCC(=O)N3CCC4(CC3)OCCO4)C(=O)CC2)cc1,-10.3%
16,N/C(=N\OC(=O)C1CCCCC1)c1ccc(Cl)cc1,18.2%
17,NC(=O)C1(C(N)=O)OC1c1ccc(Cl)c(Cl)c1 (stereo not shown),-9.36%
18,O=C(CCOc1ccccc1)NCC(c1ccco1)N1CCCCC1 (stereo not shown),1.76%
19,CN(Cc1ccc(Br)cc1)CC(O)COc1cccc(Br)c1 (stereo not shown),-28.5%
20,N#Cc1nc(-c2ccccc2F)oc1N1CCN(C(=O)c2ccco2)CC1,-18.2%
21,O=C(Nc1nccs1)C1CCCN1S(=O)(=O)c1ccc(F)cc1 (stereo not shown),-2.17%
22,O=C(O)C1CCCN1C(=O)Oc1ccccc1 (stereo not shown),-7.36%

row,Compound,"hERG current change (%, negative = inhibition) at 10uM"
1,N[C@@H]1CONC1=O,19.1%
2,O=C(CSc1nc(C2CC2)nc2ccccc12)Nc1ccccc1N1CCOCC1,24.5%
3,NC(=O)c1sc2nc(-c3ccccc3)ccc2c1N,18.7%
4,CCOC(=O)N1CCN(S(=O)(=O)c2ccc(Cl)cc2)CC1,0.615%
5,CCc1cc2c(SCC(=O)O)ncnc2s1,3.19%
6,CCCCN1C(=O)N(C)C2NC(=S)NC21 (stereo not shown),10.9%
7,CC1CCN(C(=O)C2CCC(C)(C(=O)O)C2(C)C)CC1 (stereo not shown),0.819%
8,COCCN(Cc1cc2cc3c(cc2nc1Cl)OCO3)C(=O)Nc1ccc(F)cc1,-30%
9,Cn1nc(C(=O)OCC(=O)Nc2ccc3ccccc3c2)c2ccccc2c1=O,8.04%
10,O=C([C@H](Cc1ccccc1)N1C(=O)c2ccccc2C1=O)N1CCOCC1,4.76%
11,FC(F)(F)c1cccc(Oc2nc(-c3ccccc3)nnc2C(F)(F)F)c1,-6.42%
12,NC(=NC(=O)c1ccc(OC(F)(F)F)cc1)c1ccc(C(F)(F)F)cn1,9.2%
13,COC(=O)c1c(C)cc(C)n2c1nc1ccccc12,-20.1%
14,COC(=O)C(C)Sc1nc(NCc2ccccc2)nc(N(C)C)n1 (stereo not shown),24.6%
15,CCN(CC(=O)NCc1ccc(Cl)cc1)C(=O)COc1ccc(Cl)cc1Br,-67.7%
16,Cc1ccc(-n2nnnc2CS(=O)(=O)c2ccccc2)c(C)c1,19.2%
17,Cc1cc(OC(C)C(=O)NCCCN2CCOCC2)ccc1Cl (stereo not shown),-23.8%
18,Cc1ccc(C(=O)N/N=C(/CC(=O)c2cccs2)C(F)(F)F)cc1,11%
19,CCN(CC)CCN=C1CCCc2ccccc2N1,-0.228%
20,CN(CC(=O)Nc1ccc(N2CCOCC2)cc1)C(=O)CCNC(=O)c1ccc(Br)cc1,3.43%
21,Cc1onc(-c2c(Cl)cccc2Cl)c1C(=O)Nc1nccs1,17.1%
22,COc1ccccc1Cn1c(=S)[nH]c2cc(C(=O)NCC3CCCO3)ccc2c1=O (stereo not shown),11.9%

row,Compound,"hERG current change (%, negative = inhibition) at 10uM"
1,Cc1ccc(NC(=O)C2CCCN(S(=O)(=O)c3cnc[nH]3)C2)cc1F (stereo not shown),2.95%
2,Cn1ccc(C(=O)NC(=S)N2CCSCC2)n1,9.2%
3,O=C(CN1CCN(c2ccccc2F)CC1)c1ccc2c(c1)OCO2,-10.3%
4,Cc1cccc(S(=O)(=O)Nc2nc3ccccc3nc2NCC2CCCO2)c1 (stereo not shown),7.29%
5,CCn1c(SCC(=O)NC2CC2)nnc1-c1csc(C)c1,16.3%
6,CCOC(=O)N1CCN(C2=C(NS(=O)(=O)c3ccc(C)cc3)C(=O)c3ccccc3C2=O)CC1,-20.7%
7,COC(=O)C1=C(CS(=O)(=O)c2cc(OC)ccc2OC)NC(=O)NC1c1ccc(O)c(OC)c1 (stereo not shown),3.68%
8,Cc1ccc(CNC(=O)C2CCN(c3nnc(N4CCCC4=O)s3)CC2)cc1,14.4%
9,CCOC(=O)N1CCN(C(=O)CS(=O)(=O)c2cn(Cc3ccccc3C)c3ccccc23)CC1,-0.785%
10,O=C(N/N=C/c1ccc[nH]1)c1ccccc1OCc1ccccc1Cl,-25.5%
11,CC[C@@H](C)[C@H](NC(=O)OC(C)(C)C)c1nnc(S(=O)(=O)Cc2cc(C)ccc2C)o1,4.09%
12,Cc1ccc(S(=O)(=O)N2CCC(=O)N(C(COCc3cccc(C)c3)C(C)C)CC2)cc1 (stereo not shown),-40.8%
13,COc1ccccc1/C=C/C(=O)NCC(=O)N/N=C/c1ccc(C)o1,-9.21%
14,S=C(NCc1ccco1)Nc1ccc(Oc2ccc(Cl)cc2)cc1,0.238%
15,Cc1ccc(-c2nnc(-n3nnc4ccccc43)c3ccccc23)cc1,21.8%
16,COc1cc(S(=O)(=O)NCC2COCCO2)ccc1-n1cnnn1 (stereo not shown),-42.3%
17,COc1ccc(-c2oc3ccc(-c4ccc5c(c4)OCO5)cc3c2-c2ccc(OC)nc2)cc1,23.9%
18,Cc1cc(C)nc(N2CCCC(C(=O)NC3CC3)C2)n1 (stereo not shown),1.71%
19,CS(=O)(=O)N(CC(=O)Nc1ccccc1C(=O)N1CCOCC1)c1cccc(F)c1,-0.955%
20,Cl.NCCC1CCCC(CCN)N1 (stereo not shown),-3.51%
21,Cc1ccc(SCC(=O)c2ccc(CC(=O)O)s2)cc1,7.43%
22,Cc1cccc(OCc2nnc(SCc3nc4cc(C(F)(F)F)ccc4c(=O)[nH]3)o2)c1,12.5%
